This passage reports z-score results from PubChem BioAssay AID488969 (Vanderbilt High Throughput Screening Facility, 2010).

Molecules are shown by their SMILES. Over roughly 110,000 compounds, “z-score” has its median near -0.1; the highest 2% begin near 2. This is one part of the list. Non-standard residues stand in square brackets, D forms with d. Residues, ends and D or L forms follow the SMILES beside them. ξ: configuration not given here. *: point of attachment. Piv = CC(C)(C)C(=O)*; ξNva = CCCC(N)C(=O)O

The assay concerns the target Metabotropic glutamate receptor 8 (Rattus norvegicus) (UniProt P70579). The experiment in a line: mGluR8 Gi/Go-coupled signaling modulation – cell-based, rat, thallium flux, HTS, primary screen (AID 488969). The conditions noted are these: HEK293 rat mGluR8, GIRK (G protein-gated inwardly rectifying potassium channel) thallium flux, FluoZin2; at 10 µM; stronger effect = higher value; submaximal glutamate (EC20) added with thallium.
Chain of UniProt P70579 (P70579 whole entry, looked up): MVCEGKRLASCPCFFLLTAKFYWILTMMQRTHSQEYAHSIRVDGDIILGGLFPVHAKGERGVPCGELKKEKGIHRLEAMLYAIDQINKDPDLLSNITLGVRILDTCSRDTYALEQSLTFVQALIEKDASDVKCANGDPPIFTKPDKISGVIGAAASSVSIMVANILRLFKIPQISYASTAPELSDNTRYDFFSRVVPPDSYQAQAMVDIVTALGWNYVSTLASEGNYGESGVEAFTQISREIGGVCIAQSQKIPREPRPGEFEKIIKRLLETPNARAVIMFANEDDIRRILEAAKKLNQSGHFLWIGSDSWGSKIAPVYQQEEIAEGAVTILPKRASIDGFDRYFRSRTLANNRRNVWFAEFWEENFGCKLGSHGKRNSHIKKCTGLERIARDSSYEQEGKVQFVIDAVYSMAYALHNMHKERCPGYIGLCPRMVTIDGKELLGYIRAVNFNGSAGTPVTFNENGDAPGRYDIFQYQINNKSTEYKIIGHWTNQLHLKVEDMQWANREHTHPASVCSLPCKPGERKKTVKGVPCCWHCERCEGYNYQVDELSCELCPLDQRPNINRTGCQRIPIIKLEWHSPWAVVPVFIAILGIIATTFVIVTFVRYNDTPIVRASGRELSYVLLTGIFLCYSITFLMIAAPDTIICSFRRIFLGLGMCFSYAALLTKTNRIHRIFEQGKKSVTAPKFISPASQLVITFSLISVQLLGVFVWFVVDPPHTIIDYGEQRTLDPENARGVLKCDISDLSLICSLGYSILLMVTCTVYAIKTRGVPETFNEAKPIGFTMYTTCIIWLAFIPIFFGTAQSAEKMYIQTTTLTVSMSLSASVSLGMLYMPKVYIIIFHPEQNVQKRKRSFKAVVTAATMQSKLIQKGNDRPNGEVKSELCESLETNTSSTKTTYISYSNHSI
With `COC(=O)C(O)(CC(=O)Nc1cc(OC)c(OC)c(OC)c1)C(F)(F)F` (stereo unspecified), the z-score was 0.249.

As to `COc1ccc(CC(=O)OCC(=O)NC(=O)NC2CCCCC2)cc1`, the z-score was -0.846.

`Cc1noc(C)c1C(=O)Nc1ccc(F)cc1F` came in with a z-score of -0.305.

Take `COc1ccc(N2C(=O)CC(N3CCC(C(N)=O)CC3)C2=O)cc1` (stereo unspecified): the z-score is -0.355.

Molecule `O=C(c1ccco1)N1CCN(C(=O)C2c3ccccc3Oc3ccccc32)CC1` showed a z-score of 0.889.

Take `COc1ccc(S(=O)(=O)/N=C2/NC(=O)/C(=C/c3ccco3)S2)cc1`: the z-score was -0.0953.

The molecule `CC(C)c1onc(C(=O)N2CCCCC2C)c1[N+](=O)[O-]` (stereo unspecified) had a z-score of -0.0403.

Regarding `c1ccc(C2=Nc3ccccc3SC2c2nc3ccccc3[nH]2)cc1` (stereo unspecified), the z-score was -0.337.

Turning to `COC(=O)c1ccc(OCC(=O)c2cccc(OC)c2)cc1`, the z-score was -0.425.

On to `Cc1ccc(CN2CCN(c3ccccn3)CC2)s1`, for which the z-score is 0.0885.

The molecule `COC(=O)c1sccc1NC(=O)CCC1CCCCC1` displayed a z-score of 0.077.

`Cc1oc(C)c(C(=O)Nc2ccc(CC(=O)O)cc2)c1C(=O)Nc1ccc(CC(=O)O)cc1` came in with a z-score of -0.00891.

`CCc1ccc(C(=O)CCC2CCCCC2=O)cc1` (stereo unspecified) showed a z-score of 0.096.

`O=C(O)c1cccc(N/N=C/c2sc(N3CCOCC3)nc2-c2ccccc2)c1` displayed a z-score of -0.235.

On to `O=C(CCN1CCN(c2ccc(F)cc2)CC1)Nc1ccc(F)cc1`, for which the z-score is -0.166.

`Cc1ccc(-c2nn(C)c(=O)c3ccccc23)cc1CNC(=O)CSc1nc2ccccc2o1` showed a z-score of -0.317.

With `CCOC(=O)c1c(-c2ccccc2)csc1NC(=O)C1CCCO1` (stereo unspecified), the z-score is -0.568.

As for `Cc1cc2occ(CC(=O)NCc3cccs3)c2cc1C(C)C`, the z-score is -0.343.

In turn, `Cc1cc(Br)ccc1NC(=O)CNC(=O)CSc1n[nH]c(N)n1` gave a z-score of 1.01.

As for `O=C(Nc1ccc(Cl)cc1C(=O)Nc1ccncc1)c1ccco1`, the z-score was -0.0985.

`COc1cc(OC)nc(NC(=O)CCl)n1` displayed a z-score of 0.431.

`Cc1c(C(=O)O)oc2ccc(S(=O)(=O)N3CCCCC3C(=O)O)cc12` (stereo unspecified) gave a z-score of -0.577.

With `CC(O)c1nc2ccccc2n1CCOc1ccccc1` (stereo unspecified), the z-score was -0.136.

Molecule `O=C(NNC(=S)Nc1ccc(Br)cc1Cl)c1ccco1` had a z-score of 0.791.

Take `N#CC(c1ccccc1)(c1ncc(C(F)(F)F)cc1Cl)N1CCOCC1` (stereo unspecified): the z-score was -0.239.

`Cc1ccc(C(=O)CCNc2ccc(Br)cc2)o1` came in with a z-score of 0.112.

For the molecule `COc1ccc(-c2nnc(SCC(=O)N3CCOCC3)n2C)cc1OC`, the z-score was -0.0175.

In turn, `Cc1ccc(CNC(=O)CCNC(=O)Cn2ccc3ccccc3c2=O)o1` displayed a z-score of 0.101.

As to `CCCC(NC(=O)CNC(=O)C(C)(C)C)C(=O)O` (stereo not drawn) (Piv-Gly-[ξNva]-OH), the z-score is -0.0706.

The molecule `CC(=O)NS(=O)(=O)c1ccc(NC(=O)c2cc(-c3ccc(C)c(C)c3)nc3ccccc23)cc1` showed a z-score of 0.117.

On to `O=C(O)c1ccccc1C(=O)NNc1ccc(Cl)cc1`, for which the z-score is -0.0989.

`COc1ccc(-c2nc(CSCC(=O)NCCC3=CCCCC3)c(C)o2)cc1OC` showed a z-score of -0.246.

With `Cc1ccc(NC(C(N)=O)c2c(C)[nH]c(=O)[nH]c2=O)cc1` (stereo unspecified), the z-score was 0.0671.

Turning to `CC(=O)C1=C(C)NC(SCSc2ccccc2)=C(C#N)C1c1cccnc1` (stereo unspecified), the z-score is -0.0373.

For the molecule `CCN(CCNC(=O)CCCn1nc(C)n2c(cc3sccc32)c1=O)c1ccccc1`, the z-score is -0.512.

Molecule `CCCCNCc1cc(OC)c(OCC(N)=O)cc1Br` returned a z-score of -0.0477.

For the molecule `Cc1nn(Cc2ccccc2)c(C)c1NC(=O)c1cc(-c2ccco2)on1`, the z-score came out at 0.0399.

`N#CCSc1nnc(Nc2ccccc2)s1`: the z-score is 0.314.

With `COc1ccc(NC(=O)CNS(=O)(=O)c2ccc3nc(C)sc3c2)c(OC)c1`, the z-score is -0.348.

On to `O=C(N/N=C/c1ccc(Br)s1)c1ccccc1[N+](=O)[O-]`, for which the z-score is -0.0331.

Turning to `Cc1cc(C)n2cc(CSc3nnc(SCc4cn5c(C)cc(C)nc5n4)s3)nc2n1`, the z-score is -0.116.

Turning to `Cc1cc(S(=O)(=O)N2CCN=C2c2ccccc2)ccc1F`, the z-score amounted to 0.13.

`O=C(NCc1cn2ccsc2n1)c1c(F)cccc1Cl` showed a z-score of -0.416.

Consider `COc1cc(-c2cc(C(=O)O)c3cc4c(cc3n2)OCCO4)cc(OC)c1OC`, for which the z-score is -0.103.

`COc1ccc(OC)c(NC(=O)C2CC(=O)n3ncnc3N2)c1` (stereo unspecified) yielded a z-score of -0.244.

`Cc1ccc(S(=O)(=O)NCc2ccc(C(=O)N3CCN(c4ccccn4)CC3)cc2)cc1` returned a z-score of -2.02.

The molecule `O=Cc1cn(-c2ccccc2)nc1-c1cc2c(ccc3ccccc32)oc1=O` returned a z-score of -0.427.

`CN(C)c1oc(-c2ccccc2Cl)nc1S(=O)(=O)c1ccccc1` came in with a z-score of -0.418.

`Cc1ccccc1NC(=O)c1ccc(NS(=O)(=O)c2cc(C(C)(C)C)cc(C)c2C)cc1` displayed a z-score of -0.0521.

On to `CC(C)NS(=O)(=O)c1ccc(OCC(=O)NCCC2=CCCCC2)cc1`, for which the z-score is -0.342.

As to `O=C(COc1cccc(Oc2ccccc2)c1)Nc1ccc(SC(F)F)cc1`, the z-score was -0.269.

The molecule `Cc1ccc(S(=O)(=O)/C(C#N)=C/c2c(N3CC(C)OC(C)C3)nc3c(C)cccn3c2=O)cc1` (stereo unspecified) came in with a z-score of -0.128.

Consider `CCS(=O)(=O)N1CCC(C(=O)NCc2cc(OC)ccc2OC)CC1`, for which the z-score is -0.0786.

For `COc1ccc(Cn2c(-c3ccco3)nc3oc4cc(OC)ccc4c(=O)c3c2=O)cc1`, the z-score worked out at 2.22.

On to `COc1ccc2c(C)cc(SCC(=O)N3CCOCC3)nc2c1`, for which the z-score amounted to 0.247.

For `COC(=O)CSc1nc(N2CCCCC2)c2c(c1C#N)CCCC2`, the z-score is -0.221.
